{
  "source": "PubChem BioAssay AID624172",
  "about": "(National Center for Advancing Translational Sciences (NCATS), 2012)",
  "note": "In all, about 380,000 compounds went through this assay and about 25 (0.007%) were called active. Inconclusive results, whose numbers are uncertain, are shown with a selection of clear calls. The call rests on the fitted dose curve; in most records, active means well fitted activation curve with a large enough effect; inconclusive means small, poorly fitted or top-dose-only effect; inactive means no such curve, though single readings can be large or run the other way. Potencies of inconclusive entries are left out as doubtful fits. Potency means the concentration at half of the fitted maximal effect; tags describe the fitted curve by direction and shape.",
  "data": [
    {"target": "Glucagon-like peptide 1 receptor (Homo sapiens) (UniProt P43220)", "sequence (P43220 whole entry, looked up)": "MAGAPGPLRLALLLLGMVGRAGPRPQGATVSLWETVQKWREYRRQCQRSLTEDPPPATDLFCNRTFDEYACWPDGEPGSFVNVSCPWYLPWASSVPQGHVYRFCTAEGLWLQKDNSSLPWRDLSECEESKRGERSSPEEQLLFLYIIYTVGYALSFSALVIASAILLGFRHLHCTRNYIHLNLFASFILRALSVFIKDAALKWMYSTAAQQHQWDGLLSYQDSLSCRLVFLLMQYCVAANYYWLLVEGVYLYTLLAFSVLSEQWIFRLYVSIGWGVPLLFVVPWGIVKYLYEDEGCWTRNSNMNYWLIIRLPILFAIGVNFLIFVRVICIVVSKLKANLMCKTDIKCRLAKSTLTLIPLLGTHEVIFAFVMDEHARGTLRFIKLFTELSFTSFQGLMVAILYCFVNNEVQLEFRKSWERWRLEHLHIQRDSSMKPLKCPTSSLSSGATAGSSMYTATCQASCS", "assay": "qHTS of GLP-1 Receptor Agonists; on activation: % of control where 0% means no effect", "conditions": "HEK293 GLP-1R CRE-luciferase, luminescence, 4-6 h, cells express a hypersensitive GLP-1R form; activation: at 45.6 µM (top of the series) unless noted", "values": [
      {"smiles": "COc1ccc(OC)c(NC(=O)Nc2nnc(N3CCCCC3C)s2)c1", "note": "(centres undefined)", "Potency": "inconclusive [activator, partial curve, poor fit]"},
      {"smiles": "CC(N=Cc1nc(-c2ccccc2)oc1O)c1ccccc1", "note": "(centres undefined)", "Potency": "inconclusive [activator, partial curve]"},
      {"smiles": "CCOC(=O)C1C(c2ccc(O)c(OC)c2)NC(=S)NC1(O)C(F)(F)F", "note": "(centres undefined)", "activation": "inactive: -1.99%"},
      {"smiles": "Cc1nc(C)c(-c2csc(Nc3ccc(O)cc3C)n2)s1", "Potency": "inconclusive [activator, partial curve, poor fit]"},
      {"smiles": "CCN(CC)CCCNC(=O)c1ccc(-c2nc(CN3CCc4ccccc43)c(C)o2)cc1", "Potency": "inconclusive [activator, single point]"},
      {"smiles": "COc1cc(NC(=O)COc2cc(O)c3c(c2)OC(C)(C)CC3=O)cc(OC)c1OC", "Potency": "inconclusive [activator, single point]"},
      {"smiles": "CCSc1nc(N)nc(-c2cccs2)c1C#N", "Potency": "inconclusive [activator, partial curve, poor fit]"},
      {"smiles": "Cc1ccc(C2(c3noc(CN4CCC(c5ccncc5)CC4)n3)CCCC2)cc1", "Potency": "inconclusive [activator, partial curve, poor fit]"},
      {"smiles": "COc1ccc(C(=O)N(Cc2ccccc2)Cc2cc3cc4c(cc3[nH]c2=O)OCCO4)cc1", "activation": "inactive: 7.24%"},
      {"smiles": "O=S(=O)(Cc1cc(-c2ccccc2)no1)c1ccccc1", "Potency": "inconclusive [activator, single point]"},
      {"smiles": "COc1ccc(Nc2nc(N)c([N+](=O)[O-])c(N3CCCC3)n2)cc1", "Potency": "inconclusive [activator, single point]"},
      {"smiles": "CC1COC(Cn2c3ccccc3c3ccccc32)O1", "note": "(centres undefined)", "Potency": "inconclusive [activator, full curve, poor fit]"},
      {"smiles": "CC(C)(C)c1cc(CCC(=O)N2CCCC2)cc(C(C)(C)C)c1O", "activation": "inactive: -1.14%"},
      {"smiles": "COc1cc(NC(=S)NC(=O)c2ccccc2F)ccc1NC(=O)c1cccs1", "activation": "inactive: -0.976%"},
      {"smiles": "COC(=O)c1cc(NC2c3ncccc3C(=O)N2Cc2ccccc2)cc(C(=O)OC)c1", "note": "(centres undefined)", "Potency": "inconclusive [activator, partial curve]"},
      {"smiles": "CN(Cc1ccccc1)C(=O)c1[nH]cnc1C(=O)NCC(=O)OCc1ccccc1", "activation": "inactive: -0.927%"},
      {"smiles": "CCOC(=O)c1ccc2c(c1)[nH]c(=S)n2CC", "Potency": "inconclusive [activator, partial curve, poor fit]"},
      {"smiles": "Cn1cc(Br)c(C(=O)NC(=S)Nc2ccc(S(N)(=O)=O)cc2)n1", "activation": "inactive: 2.08%"},
      {"smiles": "CCOC(=O)CC(NC(=O)c1cc2cccc(OC)c2oc1=O)c1ccc(OC)cc1", "note": "(centres undefined)", "Potency": "inconclusive [activator, partial curve, poor fit]"}
    ]}
  ]
}
